Laboratory results as given in the supplement of paper PMC10126150.
Values marked as one replicate rest on one cluster of the flow cell; about a third of the high ones do not repeat.

Tested on: ATP
Test: switch fluorescence ratio, 500 uM ATP over buffer (Cy3 cluster intensity, sum of 5 cycles each) (fold (ratio)); higher = stronger signal-on switching upon ATP binding; sequences stand for … in TCGTCGGCAGCGTCAGATGTGTATAAGAGACAGTTTTTTTTTTTTTTTTTTTTTTTTT…TC
Conditions: aptamer strand: ATP DNA aptamer (quencher-CACCTGGGGGAGTATTGCGGAGGAAGG + anchor), 100 nM annealed; ATP concentration: 500 uM; one replicate
Outline: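 Cy3-labelled switching-strand clusters on a modified Illumina MiSeq flow-cell were annealed to 100 nM quencher-labelled ATP aptamer and imaged first in selection buffer, then after 15 min with 500 uM ATP at 22 °C. NaOH stripping and re-annealing separated each of five buffer/ATP cycles, and clusters outside 100-1000 RFU were excluded. The fluorescence ratio sums target-cycle Cy3 intensity over buffer-cycle Cy3 intensity per cluster and averages it per switch-domain sequence.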
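Also: ATP exposure 15 min at 22 °C before imaging.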

| Sequence | switch fluorescence ratio |
| --- | --- |
| GATCGCTACG | 1.09 |
| GTGGGGAGTA | 1.01 |
| TGATAGCTGG | 0.96 |
| GGTAGAAAG | 0.956 |
| TCGCGGGTGC | 1.14 |
| GGTGTGTGAA | 1.03 |
| TAAAAACGCT | 1.01 |
| TTCAGCTAGC | 0.985 |
| TTTGGCTC | 1 |
| ATGTGCGAAT | 1.04 |
| CGGAAATGGT | 1.04 |
| CCGTGTACGT | 1.11 |
| GCTAGTCTTC | 0.955 |
| CGGAGATTGC | 1.1 |
| AAAGAATGTT | 0.986 |
| GAGCCCCTAC | 1.06 |
| CCGAGTTGGG | 1.06 |
| TGTAACAGGG | 1.01 |
| CCACTATTTA | 1.03 |
| ACGGACCGTC | 0.954 |
| ATTAGTAGCC | 0.999 |
| TAGAACGCT | 1.06 |
| GATTCTTTTG | 0.971 |

| Sequence | switch fluorescence ratio |
| --- | --- |
| TAGGCACGGC | 0.984 |
| CGAGTCTCGA | 1.01 |
| GATGTCATTG | 0.989 |
| AGGTTATGC | 1.02 |
| ATTGCTGCGT | 0.973 |
| ATCACAGGA | 0.999 |
| CGGACAGCGG | 1.03 |
| TGACATCGGT | 1.01 |
| GCAGTTGCTT | 1.01 |
| AGCTGCAAAT | 1.02 |
| TACGTCGTGT | 1.03 |
| AGCGCGCAGT | 1.04 |
| GTATAAACGC | 1.01 |
| TTTCATAGCG | 1.01 |
| ACGTCAATCA | 1.27 |
| TTTAATTGGA | 1.02 |
| GGTGGGACTG | 1.01 |
| GTAACCTGAG | 1.91 |
| AGGGTGTTCG | 0.953 |
| GAGTTTGAGA | 0.961 |
| GAAGGGATCT | 1.01 |
| CGAGACGAGT | 0.926 |
| TGGAATTCAC | 0.998 |

| Sequence | switch fluorescence ratio |
| --- | --- |
| CAGAGGGTAT | 1.08 |
| TCCGTGCCGT | 1.11 |
| CAGAACAGAC | 1.1 |
| GACTCCTGGT | 1.06 |
| TTCGTGTCTC | 0.956 |
| TTCTCGGAAG | 1.01 |
| GCAAGAAGAG | 0.986 |
| AGCGAGCAC | 1.1 |
| CGCGGGGCGA | 1.02 |
| TCGATCGGTG | 0.986 |
| CGGCAACGGC | 1.07 |
| AAAGGGCCTG | 0.966 |
| TCGGTATGAT | 1.17 |
| GGTATATAT | 0.928 |
| GCACGGGTTT | 1.1 |
| GGAGCCAATT | 1.03 |
| ACTTAAAACG | 1.15 |
| GGTTGGAAAC | 0.982 |
| AAGGCCGCAC | 1.34 |
| TATCCGACTA | 1.11 |
| TTCTGACT | 0.957 |
| AGTAATTAGT | 0.93 |
| GACGAACGGG | 1.28 |

| Sequence | switch fluorescence ratio |
| --- | --- |
| GCGACTACCT | 1.34 |
| TGACATAGTT | 1.02 |
| CAGAGTCGGA | 1.03 |
| AGTCTGCTGA | 1.02 |
| AGAGTAGCGG | 1.09 |
| GATACCGAGG | 1.02 |
| AAAGATGCCA | 1.02 |
| CGTCGTATCA | 0.981 |
| TTCGTCGGTT | 1.01 |
| TGCTTTGTAC | 1.18 |
| GACTAGTCAT | 1.01 |
| TGTCCCTCGC | 1.11 |
| CAATCGTACG | 0.941 |
| CGGTTGTCCC | 0.96 |
| GAAGGACGGA | 1.01 |
| GTACGTCTCG | 0.999 |
| CTGCGGTTGG | 1.03 |
| AAAGACGCCT | 1.11 |
| TACTAATGGT | 0.99 |
| ACTATCAATG | 1.01 |
| TGAGTCACGG | 1.02 |
| TAGTAAAGTG | 1.05 |
| TTAAGTCCCG | 1 |

| Sequence | switch fluorescence ratio |
| --- | --- |
| CCGAGATCAT | 1.11 |
| ACCAAGGTG | 4.47 |
| AATTGTGGTA | 0.954 |
| GAAGCTGCTA | 1.03 |
| TGGTGCCACT | 0.996 |
| ATTTATTGCA | 0.957 |
| CCCATTGAAG | 1.02 |
| AGGGCGAAGC | 1.07 |
| GGCGATACGG | 1.59 |
| TGCCAATGGC | 0.996 |
| ATATGTAAAA | 1 |
| TTTCCGGGAG | 1.04 |
| GTAGATTTTT | 1.02 |
| GCCCCATAAT | 1.03 |
| CTTGACTGG | 1.02 |
| GTACCTGACG | 1.11 |
| AATACCCAAA | 1.04 |
| CCGTTTGAGA | 0.95 |
| TCGCGGAATC | 1.18 |
| GAGCTTCGTG | 0.997 |
| AGATCCGTTT | 0.985 |
| GGTTTAGAGT | 1.01 |
| CGACTTAGCA | 1.04 |

| Sequence | switch fluorescence ratio |
| --- | --- |
| GTTATGATAC | 1.05 |
| ACGTTTCTGG | 1.03 |
| TCATTGAGGT | 0.973 |
| TTGCAGCGTA | 1.02 |
| CTGGCAAGGG | 1.09 |
| CTGCATGGCT | 1.08 |
| AGGAATTGCG | 0.978 |
| TTCGATATGG | 1.07 |
| GGAGTTACGG | 1.01 |
| CGCTCGTATC | 0.986 |
| AGCATCTTGA | 0.975 |
| TGTTCTCCCA | 0.945 |
| ATATGATACC | 1.01 |
| GAAGTATTAT | 1 |
| GTAGCCAACG | 1.02 |
| GGGTTACGAC | 1.03 |
| AAGTCAGGTA | 1 |
| CGTTTTGT | 1.01 |
| CGACCGACGA | 1.66 |
| TCTGGAGGTG | 1.03 |
| CAGTATAAGA | 0.964 |
| ACTCTCGTCG | 0.999 |
| ACGTCTGCAC | 1.48 |

| Sequence | switch fluorescence ratio |
| --- | --- |
| CAATTAACCT | 1.74 |
| GCATGTGCTT | 1.02 |
| TTAGAGTGTA | 1.02 |
| ATTCGCAT | 1.47 |
| TGCTGGTCCG | 0.959 |
| ATCGTCCGTT | 0.995 |
| TTGCCACTCG | 1.02 |
| ACATGCACGT | 1.38 |
| ACGATTGCAG | 1.04 |
| CGGGAGCTAA | 1.17 |
| TTATCGGTGA | 0.978 |
| CTGGTGTCTT | 0.975 |
| TATACTCGTT | 1.03 |
| TTAGTACTGG | 1.02 |
| TATCTGTGGC | 1.04 |
| GTTAAACTAT | 1.01 |
| GCATTCGAAA | 1.03 |
| TGCGCTTCTG | 1.04 |
| GGGGCTAGG | 1.12 |
